Data taken from the supplement of paper PMC10441789.
The other results are listed elsewhere or left out. Antibody binding of pooled human sera (four to six donors per pool; dilution not stated) to peptides of the Trypanosoma cruzi antigen TSSA on microarrays. Quantile-normalised fluorescence in arbitrary units, mean of duplicate arrays; higher = more binding. No active / inactive call. The uninfected pools are read here as the healthy donors of the same country. The strongest signals lie near the top of the scale (about 60,000).

Key:
Assay in all cases: antibody binding signal (normalised fluorescence) (arbitrary fluorescence units); higher = stronger serum antibody binding to peptide
[1] = tested on: pooled sera of chronic Chagas disease patients, Bolivia
Procedure: (§1)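 Microarray of 15-residue peptides over residues 30-55 of Trypanosoma cruzi TSSAII, each with 1 to 10 substitutions at naturally variable positions, probed with one serum pool per country.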

[2] = tested on: pooled sera of chronic Chagas disease patients, Brazil
Procedure: as §1

[3] = tested on: pooled sera of chronic Chagas disease patients, Colombia
Procedure: as §1

[4] = tested on: pooled sera of chronic Chagas disease patients, Mexico
Procedure: as §1

[5] = tested on: pooled sera of chronic Chagas disease patients, USA
Procedure: as §1

[6] = tested on: pooled sera of uninfected people, Argentina
Procedure: as §1

[7] = tested on: pooled sera of uninfected people, Bolivia
Procedure: as §1

[8] = tested on: pooled sera of uninfected people, Brazil
Procedure: as §1

[9] = tested on: pooled sera of uninfected people, Colombia
Procedure: as §1

[10] = tested on: pooled sera of uninfected people, Mexico
Procedure: as §1

[11] = tested on: pooled sera of uninfected people, USA
Procedure: as §1

Row | Sequence | antibody binding signal [1] | antibody binding signal [2] | antibody binding signal [3] | antibody binding signal [4] | antibody binding signal [5] | antibody binding signal [6] | antibody binding signal [7] | antibody binding signal [8] | antibody binding signal [9] | antibody binding signal [10] | antibody binding signal [11]
1 | TPPSGKENKTAAGET | 10600 | 4380 | 588 | 2150 | 2240 | 1700 | 1360 | 243 | 779 | 278 | 230
2 | KEKKTATGGAPSQSG | 269 | 448 | 636 | 822 | 489 | 224 | 124 | 102 | 121 | 106 | 108
3 | GTDNKAAAGGAPSQS | 228 | 29900 | 2560 | 439 | 263 | 180 | 727 | 1590 | 211 | 227 | 203
4 | SGKDKKPAAGGAPSP | 255 | 457 | 3150 | 1420 | 1450 | 140 | 104 | 98.9 | 632 | 77.4 | 99.7
5 | DKKAATGGAPSQPGA | 888 | 6640 | 1510 | 1000 | 1570 | 340 | 580 | 153 | 660 | 297 | 185
6 | EKKPAAGGAPSPSGA | 215 | 392 | 5880 | 467 | 1010 | 342 | 844 | 428 | 110 | 125 | 754
7 | PSGKENKAATGEAPS | 21500 | 34900 | 5090 | 6910 | 32000 | 7320 | 3690 | 267 | 841 | 469 | 275
8 | SGTEKKPAAGGTPSP | 278 | 4360 | 8500 | 2650 | 2260 | 161 | 1020 | 1720 | 243 | 364 | 1520
9 | GTDKKPATGETPSQS | 27000 | 34600 | 7490 | 550 | 22700 | 240 | 444 | 245 | 262 | 2050 | 186
10 | KDKKAAAGGAPSPPG | 256 | 182 | 2090 | 305 | 452 | 118 | 79.8 | 113 | 146 | 82.1 | 107
11 | KDNKAAAGETPSQSG | 227 | 5990 | 159 | 197 | 212 | 276 | 1350 | 214 | 182 | 118 | 88.2
12 | KEKKPATGETPSPSG | 4290 | 17800 | 146 | 138 | 17600 | 140 | 148 | 115 | 119 | 584 | 1370
13 | GKDNKTAAGGAPSQS | 187 | 241 | 3190 | 581 | 478 | 147 | 128 | 137 | 180 | 84.6 | 136
14 | PSGKEKKTAAGGTPS | 590 | 5400 | 10600 | 8260 | 6480 | 242 | 211 | 302 | 174 | 208 | 128
15 | SSTPPSGTDKKPAAG | 6540 | 46100 | 14200 | 42600 | 11200 | 1290 | 608 | 306 | 301 | 3360 | 699
16 | TSSTPPSGKENKPAA | 18600 | 27500 | 859 | 11100 | 14300 | 5650 | 1960 | 269 | 640 | 308 | 898
17 | ISTPPSGKDKKPAAG | 4170 | 10900 | 414 | 42600 | 1050 | 267 | 344 | 173 | 177 | 136 | 205
18 | GTEKKAATGGTPSPS | 999 | 374 | 2470 | 1070 | 1440 | 216 | 746 | 929 | 1030 | 97.6 | 166

Row | Sequence | antibody binding signal [1] | antibody binding signal [2] | antibody binding signal [3] | antibody binding signal [4] | antibody binding signal [5] | antibody binding signal [6] | antibody binding signal [7] | antibody binding signal [8] | antibody binding signal [9] | antibody binding signal [10] | antibody binding signal [11]
19 | DKKTAAGEAPSQSGA | 5800 | 5230 | 477 | 496 | 6370 | 167 | 329 | 171 | 546 | 719 | 140
20 | EKKPAAGGAPSQPGA | 307 | 5390 | 4900 | 383 | 550 | 282 | 765 | 494 | 134 | 171 | 815
21 | ENKPATGGTPSQSGA | 3800 | 3670 | 398 | 926 | 665 | 470 | 906 | 759 | 246 | 340 | 300
22 | TDNKPAAGEAPSQPG | 25800 | 41900 | 397 | 155 | 15800 | 101 | 303 | 229 | 103 | 269 | 89.6
23 | TPPSGTEKKPATGET | 37600 | 40300 | 350 | 14400 | 7270 | 1040 | 451 | 879 | 254 | 2300 | 1760
24 | GTDNKTATGEAPSPS | 30300 | 33000 | 188 | 280 | 21300 | 160 | 586 | 1110 | 116 | 102 | 113
25 | PPSGTDNKAAAGEAP | 33300 | 45500 | 1060 | 609 | 12400 | 598 | 714 | 1210 | 207 | 207 | 268
26 | SSTPPSGKDNKPATG | 2870 | 28300 | 601 | 20700 | 13100 | 364 | 1650 | 184 | 195 | 266 | 241
27 | SGTDNKTATGEAPSP | 28500 | 40900 | 169 | 188 | 21000 | 130 | 549 | 821 | 142 | 108 | 154
28 | GKENKAATGEAPSQP | 26300 | 43600 | 13800 | 12300 | 29600 | 544 | 138 | 114 | 198 | 119 | 195
29 | TDNKAAAGEAPSQSG | 18800 | 24800 | 187 | 151 | 13100 | 74.8 | 352 | 141 | 62.9 | 109 | 108
30 | ENKAATGGTPSPPGA | 2560 | 378 | 532 | 388 | 284 | 210 | 141 | 400 | 355 | 120 | 142
31 | GKDNKPATGGTPSQP | 280 | 10400 | 855 | 988 | 928 | 272 | 702 | 173 | 197 | 267 | 96.8
32 | EKKTAAGGAPSQPGA | 674 | 1260 | 7070 | 605 | 689 | 206 | 791 | 163 | 264 | 242 | 689
33 | KDNKAAAGGTPSQSG | 192 | 182 | 743 | 155 | 936 | 235 | 1030 | 416 | 192 | 94.4 | 89.5
34 | GKDKKAATGGTPSQP | 231 | 321 | 1130 | 1720 | 736 | 259 | 80.6 | 152 | 240 | 222 | 108
35 | TPPSGTDNKPAAGEA | 43000 | 46100 | 6970 | 25600 | 23200 | 1900 | 758 | 325 | 294 | 720 | 325
